Reference: PubChem BioAssay (NCI)
Values joined by “and” are separate entries in the source; they are usually repeats but may differ in a detail not shown here. Equal entries are not always repeated.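 Dose response: 5 concentrations. Exposure: 48 h. Format: 96-well plates. Endpoint: linear interpolation; highest concentration if not reached. GI50 = concentration required for 50% inhibition of growth. Definition used: TGI = concentration required for complete inhibition of growth.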 Peptide text beside a SMILES is read from it. * marks the point of attachment. Ethyl(2-NMe3+) = C[N+](C)(C)CC*; Boc = CC(C)(C)OC(=O)*

test system: NCI-H322M lung; assay: DTP human tumour cell line panel, 48 h

| Compound | TGI | GI50 |
| --- | --- | --- |
| CC1(C)C/C(=N/O)c2c(nc3ccc4ccccc4c3c2-c2ccc(Cl)cc2)C1 | > 100 µM |  |
| COC(=O)C1(C(=O)OC)Cc2ccc(C)cc2C2=C1C(=O)c1ccccc1C2=O | > 100 µM |  |
| CCOC(=O)[C@@H]1CCN2CN(c3ccc(OC)cc3)N=C(c3ccccc3)[C@@]12c1ccccc1 | > 100 µM |  |
| CC1OC(OC2C(OC(=O)[C@@H]3CC(C)(C)C[C@@H]4C5=CC[C@@H]6[C@@]7(C)C[C@H](O)[C@H](OC8OC(CO)C(O)C(O)C8O)[C@@](C)(CO)C7[C@H](O)C[C@@]6(C)[C@]5(C)C[C@@H](O)[C@H]43)OCC(O)C2O)C(O)C(O)C1O (some centres undefined) | > 15 µM |  |
| Cc1ccc(C2=C(C#N)C(=O)N3CCN=C3S2)cc1 | > 100 µM |  |
| Cc1ccc(N2CCC3(CC2)OCCO3)cc1 | > 100 µM |  |
| COc1cccc(-c2nc3ccccc3c(=O)[nH]2)c1OC | > 100 µM |  |
| CCN1C(=O)N(c2ccccc2)C2NC(=S)N(/N=C/C=C/c3ccccc3)C21 (centres undefined) | > 100 µM | 0.717 µM |
| O=Cc1ccccc1B(O)O | > 100 µM |  |
| Cc1c(Cl)c(S(N)(=O)=O)cc2c1NC=NS2(=O)=O | > 100 µM |  |
| Nc1[nH]c(=S)c2c(N)n[nH]c2c1C(=O)Nc1ccccc1 | > 100 µM |  |
| Cc1cc(Cc2cc(C)cc(C(C)(C)C)c2O)c(O)c(Cc2cc(C)cc(C(C)(C)C)c2O)c1 | 9.68 µM |  |
| Cc1[nH]c(=O)n2c(C)nnc2c1C(=O)Nc1cc(Cl)cc(Cl)c1 | > 100 µM |  |
| CN(C)CCCN1c2ccccc2C(C)(C)c2ccccc21 | 28.6 µM |  |
| C=C(C)[C@@H]1CC[C@]2(C)[C@H](CC=C3[C@@H]4[C@@H](C)[C@H](C)CC[C@]4(C(N)=O)CC[C@]32C)[C@@]1(C)CCC#N | > 100 µM | 7.13 µM |
| CC(C)COCC(CN(Cc1ccccc1)c1ccccc1)N1CCCC1 (centres undefined) | 21.1 µM | 8.42 µM |
| CC(NC(=O)C(Cc1ccc(OCC[N+](C)(C)C)cc1)NC(=O)OC(C)(C)C)C(=O)NC(Cc1ccccc1)C(=O)NCC(N)=O (centres undefined) (Boc-Y(Ethyl(2-NMe3+))AFG-NH2; configuration not given here) | 51.2 µM |  |
| COc1cc([C@H]2CC(=O)C[C@H](c3cc(OC)c(OC)c(OC)c3)C23C(=O)c2ccccc2C3=O)cc(OC)c1OC | > 100 µM |  |
| COc1cc2c(cc1OCCCCCOc1ccc(-n3c(C)nc4ccccc4c3=O)cc1)N=C[C@@H]1CCCN1C2=O | 1.43 µM | 0.374 µM |
| S=C1CSc2c(ccc3ccccc23)N1 | > 100 µM |  |
| CC1=C(C)C1[N+](=O)[O-] | > 100 µM |  |
| CCCCCCCCCCC(C(O)c1ccccc1)N1CCCCC1 (centres undefined) | 6.24 µM | 2.26 µM |
| O=C(NCCCCCCNC(=O)OCCSCCn1cc(C(=O)NC(=O)OCc2ccccc2)c(=O)[nH]c1=O)OCCSCCn1cc(C(=O)NC(=O)OCc2ccccc2)c(=O)[nH]c1=O | > 100 µM |  |
| NC(=S)N/N=C1/CCCC2CCCC[C@@H]12 (some centres undefined) | > 100 µM |  |

| Compound | TGI | GI50 |
| --- | --- | --- |
| FC(F)(F)c1ccc(C#Cc2ccccc2C#Cc2ccccc2)cc1 | > 100 µM | 86.2 µM |
| C/C(=N\NC(=S)N1CCN(C)CC1)c1nc2ncccc2[nH]1 | > 100 µM |  |
| S=c1ssc(Oc2ccccc2)c1Cl | 30 µM | 15.2 µM |
| O=C1C=CC[C@H](/C=C/c2ccccc2)O1 | > 72.8 µM | 3.84 µM |
| CC1(C)OC(CP(c2ccccc2)c2ccccc2)C(CP(c2ccccc2)c2ccccc2)O1 (centres undefined) | > 100 µM |  |
| CC(=O)N(C(C)=O)n1c(-c2ccccc2)n[nH]c1=O | > 100 µM |  |
| CC1(O)CC(c2nc(-c3ccc4ccc(-c5ccccc5)nc4c3)c3c(N)nccn23)C1 (centres undefined) | > 100 µM | 2.25 µM and 1.86 µM |
| CC(C)(C)OC(=O)N1CCC2(C)CC(=O)CC=C12 (centres undefined) | > 100 µM |  |
| COc1ccc(C2=NN(C(N)=S)C(c3ccccc3)C2)cc1 (centres undefined) | > 100 µM |  |
| Cc1ccc(C2SC(N)=Nc3c2c(C)nn3C(=O)c2ccccc2O)cc1 (centres undefined) | > 10 µM |  |
| Cc1ccc(NC(=O)C(=O)CC(=O)c2c(C)n([O-])c3ccccc3[n+]2=O)cc1 | 57.9 µM |  |
| Cc1c(C(=O)CC(=O)C(=O)Nc2ccc(Cl)cc2)[n+](=O)c2ccccc2n1[O-] | > 100 µM |  |
| CN1CCCOC(c2ccc([N+](=O)[O-])cc2)O1 (centres undefined) | > 100 µM |  |
| CN(N)/N=N/c1nc[nH]c1[N+](=O)[O-] | > 100 µM |  |
| O=C(O)C1C(C(=O)O)C23CC2(C(=O)O)C2(C(=O)O)CCC3=C3CCCC312 (centres undefined) | > 100 µM |  |
| CN1CC[C@]2(C)c3cc(O)ccc3CC3CCCC1C32C (some centres undefined) | > 100 µM |  |
| Cc1cc2[nH]c(=O)c3c4ccccc4cn3c2cc1C | 30.4 µM | 16.7 µM |
| O=[N+]([O-])c1cc2c(c([N+](=O)[O-])c1)NCc1ccccc1O2 | > 100 µM |  |
| C[n+]1c2ccccc2c(NC(CS)C(=O)O)c2ccccc21 (centres undefined) | > 100 µM |  |
| O=C(O)NCC1CCCCC1 (tested in a mixture with another compound) | > 100 µM |  |
| CC(O)c1ccc[n+](Cc2ccccc2)c1 (centres undefined) | > 400 µM |  |
| CC(C)=c1sc(=C(C)C)c2c1=NC(C)(C)N=2 | > 100 µM |  |
| O=[N+]([O-])c1cc(C2SCc3nc4ccccc4n32)ccc1Cl (centres undefined) | > 100 µM |  |
| CN(Cc1cccc2ccccc12)Cc1cccc2ccccc12 | > 100 µM |  |

| Compound | TGI | GI50 |
| --- | --- | --- |
| Nc1ccc(CCSSCCc2ccc(N)cc2)cc1 | 28.1 µM |  |
| COC(=O)CN1SC2(SC13C(C)(C)C(=O)C3(C)C)C(C)(C)C(=O)C2(C)C | > 100 µM |  |
| CCOC(=O)/C(=C\c1ccc(C#N)cc1)C(C)=O | > 100 µM |  |
| CN(C)CC1C(=O)O[C@H]2[C@H]1CC/C(COC(=O)c1cc3ccccc3[nH]1)=C\CC[C@@]1(C)O[C@@H]21 (some centres undefined) | 25.8 µM | 11.9 µM |
| O=c1oc2cc(N=Cc3ccc4c(c3)OCO4)ccc2c2ccccc12 | > 100 µM |  |
| COc1ccc(NC(=O)/C(=N/NC(N)=S)C2C(=O)NC(=S)NC2=O)c(OC)c1 | > 100 µM |  |
| C=CCc1ccccc1CC1(OCC)OC(=O)c2ccccc21 (centres undefined) | > 100 µM |  |
| O=C1C2C(c3ccccc3)NC(c3ccccc3)C1C(c1ccccc1)NC2c1ccccc1 (centres undefined) | > 100 µM |  |
| O=C1CCCC1C(O)(C(F)(F)F)C(F)(F)F (centres undefined) | > 100 µM |  |
| Cc1ccc([N+](=O)[O-])cc1NC(=O)c1cccc([N+](=O)[O-])c1O | 95.3 µM |  |
| COc1ccc(/C=C2\N=C(SC)N(CN3CCCCC3)C2=O)cc1 | > 100 µM |  |
| COCn1cnc2c(=O)n(-c3ccc(OC)cc3)c(=S)n(-c3ccc(OC)cc3)c21 | > 100 µM |  |
| Cc1ccc(N=Nc2ccc(N)cc2C)c(S(N)(=O)=O)c1 | > 100 µM |  |
| COC(=O)NC12CC3CC(CC(F)(C3)C1)C2 | > 100 µM |  |
| NCCN.NCCN.O=C([O-])CCl.O=C([O-])CCl.[Co+3].[O-][Cl+3]([O-])([O-])[O-] | > 100 µM | > 100 µM |
| C=C1C(=O)OC2C=C(CCC(C)=O)C(C)C(OC(C)=O)CC12 (centres undefined) | 37.7 µM |  |
| CC(NCCC(=O)N(CCC(=O)N(CCC(=O)N(CCC(=O)N(CCC(=O)N(CCC(=O)N(CCC(=O)N(CCC(=O)N(CCC(=O)N(CCC(=O)O)[C@H](C)c1ccccc1)[C@H](C)c1ccccc1)[C@H](C)c1ccccc1)[C@H](C)c1ccccc1)[C@H](C)c1ccccc1)[C@H](C)c1ccccc1)[C@H](C)c1ccccc1)[C@H](C)c1ccccc1)[C@H](C)c1ccccc1)c1ccccc1 (some centres undefined) | > 75 µM | 10.3 µM |
| Nc1nc2n[nH]nc2c(=O)[nH]1 | > 100 µM |  |
| Clc1ccc2nnnn2n1 | 30.3 µM | 9.23 µM |
| CN(C)C=[N+]=[N-] | > 100 µM |  |
| CC(=O)OCC(=O)[C@@]12OC(C)(C)O[C@@H]1C[C@H]1[C@@H]3CC=C4C[C@@H](O)CC[C@]4(C)[C@H]3CC[C@@]12C | > 100 µM |  |
| CCN(CC)CCn1c2ccccc2c(=O)c2c(O)ccc(O)c21 | 72.9 µM |  |
